Screen size: about 370,000 compounds; about 150 (0.041%) were called active. The inconclusive results got no clear call from the source; some entries with a clear call stand among them for comparison. Calls follow the shape of the dose curve; as a rule, active = well fitted inhibition curve with a large enough effect; inconclusive = small, poorly fitted or top-dose-only effect; inactive = flat fitted curve, though single readings scatter. Potencies of inconclusive entries are left out as doubtful fits.
Molecular target: Beta-lactamase (Escherichia coli (strain K12)) (UniProt P00811)
Experiment: qHTS Inhibitors of AmpC Beta-Lactamase (assay with detergent); also: nearly all actives have a fitted effect of over 25% in size;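 as to activity change, negative = inhibition: 0% = no-compound wells and -100% = no-enzyme wells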
Details: AmpC hydrolysis of nitrocefin, absorbance 480 nm, 0.01% Triton; activity change, negative = inhibition: at 114 µM (top of the series)
Procedure, shortened: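 20 mM phosphate pH 7.0 + 0.01% (detergent screen) or 0.0001% Triton X-100; 5.3 nM AmpC reagent; cpd preinc 15 min RT; nitrocefin (800 uM stock) to start; A480 q20 s × 4 min; Activity was normalised to no-enzyme and no-compound control wells.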
Potency is read from the fitted curve at half-maximal effect; tags tell the direction and shape of the fitted curve.

UniProt P00811, sequence (P00811 whole entry, looked up): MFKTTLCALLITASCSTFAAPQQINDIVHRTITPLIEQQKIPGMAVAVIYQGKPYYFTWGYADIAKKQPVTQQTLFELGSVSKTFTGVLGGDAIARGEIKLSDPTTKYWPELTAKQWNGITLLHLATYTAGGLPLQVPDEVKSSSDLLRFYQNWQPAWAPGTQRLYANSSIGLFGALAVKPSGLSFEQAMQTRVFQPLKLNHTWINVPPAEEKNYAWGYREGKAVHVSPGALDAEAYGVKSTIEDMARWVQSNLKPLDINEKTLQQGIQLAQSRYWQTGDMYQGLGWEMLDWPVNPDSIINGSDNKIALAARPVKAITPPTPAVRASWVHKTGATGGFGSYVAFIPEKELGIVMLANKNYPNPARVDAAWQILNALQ

SMILES	activity change, negative = inhibition	Potency
CCCCCC(=O)Nc1ccc(NC(=O)c2cc3ccccc3o2)c(OC)c1	inactive: -2.01%	–
COc1ccc(OC)c(C(=O)c2coc3ccc(O)cc23)c1	inactive: 1.41%	–
CCOC(=O)N1CCN(C(=O)CS(=O)Cc2nc(-c3ccc(OC)c(OC)c3)oc2C)CC1 (centres undefined)	inactive: 2.89%	–
CCc1ccc(C(=O)CN2C(=O)NC3(CCc4ccccc43)C2=O)cc1 (centres undefined)	–	inconclusive [inhibitor, partial curve, poor fit]
O=C(CN1CCN(C(=O)c2ccco2)CC1)Nc1ccc2c(c1)OCCO2	inactive: -10.3%	–
O=C(CSCc1ccccc1)Nc1ccc(F)c(F)c1	–	inconclusive [inhibitor, full curve, poor fit]
COc1ccc2nc(NC(=O)CSc3nnc(C)n3N)sc2c1	inactive: 0.24%	–
Cc1nn(CC(=O)Nc2ccc(N3CCOCC3)cc2)c(C)c1Br	–	inconclusive [inhibitor, partial curve, poor fit]
COc1cccc(NC(=O)CN(C)C(=O)CCCc2nc3ccccc3c(=O)[nH]2)c1	–	inconclusive [inhibitor, single point]
CCOC(=O)Cc1c(C)nc(-c2ccccc2)[nH]c1=O	–	inconclusive [inhibitor, partial curve, poor fit]
Nc1nc(SCc2nc3sc4c(c3c(=O)[nH]2)CCCC4)n[nH]1	–	inconclusive [inhibitor, partial curve, poor fit]
CCc1ccccc1N(C)S(=O)(=O)c1ccc2[nH]cc(C(=O)N3CCc4ccccc43)c(=O)c2c1	–	inconclusive [inhibitor, partial curve, poor fit]
Cc1ccsc1-c1nc(CSCC(=O)N2CCC3(CC2)OCCO3)c(C)o1	–	inconclusive [inhibitor, single point]
CCCCOc1ccc(C2CC(=O)NC2=O)cc1 (centres undefined)	–	inconclusive [inhibitor, full curve]
Cn1c(OCc2cccnc2)nc2c1c(=O)n(Cc1ccc(Br)cc1)c(=O)n2C	–	inconclusive [inhibitor, full curve]
COc1ccc(CNCc2cc(C)c(OC)cc2C)c(OC)c1	–	inconclusive [inhibitor, full curve, poor fit]
CS(=O)(=O)c1ccc(NC(=O)CCN2C(=O)NC3(CCCC3)C2=O)cc1	–	inconclusive [inhibitor, full curve, poor fit]
CSC(=NCc1ccc(F)cc1)NS(=O)(=O)c1cccs1	–	inconclusive [inhibitor, partial curve, poor fit]
CCn1c(SCc2cccc(C)c2)nnc1-c1ccc(C)cc1	–	inconclusive [inhibitor, full curve, poor fit]
O=C(CP(=O)(c1ccccc1)c1ccccc1)Nn1cnnc1	inactive: 3.74%	–
COc1ccc(S(=O)(=O)N2CCC(C)CC2)cc1OC	–	inconclusive [inhibitor, partial curve, poor fit]
CCCSC1=N/C(=C/c2ccsc2)C(=O)N1c1ccccc1	–	inconclusive [inhibitor, partial curve, poor fit]
C/C(=N\NC(=O)CSCc1ccc([N+](=O)[O-])cc1)c1cccc(Br)c1	–	inconclusive [inhibitor, full curve]

SMILES	activity change, negative = inhibition	Potency
CCOC(=O)c1ccc(N=Nc2c(C)[nH]n(-c3ccccc3)c2=O)cc1	–	inconclusive [inhibitor, full curve]
CCOC(=O)C1CCCN(C(=O)c2cccc(S(=O)(=O)N3CCCC3)c2)C1 (centres undefined)	–	inconclusive [inhibitor, single point]
O=C(Nc1cccc(Cl)c1Cl)c1cc(S(=O)(=O)NCCc2ccccc2)ccc1F	–	inconclusive [inhibitor, partial curve, poor fit]
O=C(Nc1sccc1C(=O)N1CCOCC1)c1cccnc1	inactive: -6.89%	–
Cc1ccc2c(c1)NC(C(C)(C)C)CO2 (centres undefined)	–	inconclusive [inhibitor, single point]
Cc1cccc(N=Nc2cnc(N)s2)c1	inactive: 9.31%	–
CN(C(=O)COC(=O)c1cccc(F)c1)c1ccccc1	inactive: -11.6%	–
Cn1c(=O)c2cc(NC(=O)c3ccccc3Cl)c(=O)oc2n(C)c1=O	–	inconclusive [inhibitor, full curve, poor fit]
NC(=O)C1CCCN(C(=S)NCc2ccc3c(c2)OCO3)C1 (centres undefined)	inactive: -1.41%	–
COc1ccc(COC(=O)c2cc(S(=O)(=O)N3CCCCC3)ccc2N2CCOCC2)cc1	–	inconclusive [inhibitor, full curve, poor fit]
Cc1cccc(N2CCN(C(=O)CCS(=O)(=O)c3ccc4c(c3)oc(=O)n4C)CC2)c1C	–	inactive
CCOC(=O)COc1ccc([N+](=O)[O-])cc1-c1ccnc2cc(-c3ccc(C)cc3)nn12	inactive: -0.434%	–
CCC(=O)c1ccc(CCCCCC(=O)O)s1	–	inconclusive [inhibitor, partial curve, poor fit]
Cc1ccc(/C=C/C(=O)C2C(=O)c3ccccc3C2=O)cc1	–	inconclusive [inhibitor, single point]
Cc1ccc2oc(=O)c3cc(C(=O)NCCCN4CCCC(C)C4)sc3c2c1 (centres undefined)	inactive: -2.03%	–
COc1ccc(CNc2nc(C)cc(C)c2C#N)cc1	–	inconclusive [inhibitor, partial curve, poor fit]
Cc1cccc(C)c1NC(=O)CN(C)C(C)C(=O)Nc1ccccc1-c1ccccc1 (centres undefined)	inactive: 4.21%	–
O=c1oc2ccccc2cc1-c1csc(Cc2nc(-c3ccc(Br)cc3)cs2)n1	inactive: -3.62%	–
Cc1ccccc1N=C1N=C(N)c2ccccc21	–	inconclusive [inhibitor, partial curve, poor fit]
CCCN(CCC)C(=O)CC(c1ccccc1)c1cc(Br)ccc1O (centres undefined)	–	inconclusive [inhibitor, full curve, poor fit]
COc1ccccc1N1CCN(S(=O)(=O)c2cccc(F)c2)CC1	–	inconclusive [inhibitor, partial curve, poor fit]
O=C(CN1CCN(CCN2C(=O)c3cccc4cccc(c34)C2=O)CC1)c1ccc(F)cc1	inactive: -1.84%	–
CCCOc1ccc(-c2nc(N3CCN(C)CC3)c3ccccc3n2)cc1	–	inconclusive [inhibitor, single point]

SMILES	activity change, negative = inhibition	Potency
CCCn1c(N)c(C(=O)CN(C)CC(=O)Nc2c(C)cc(C)cc2C)c(=O)[nH]c1=O	–	inconclusive [inhibitor, single point]
Cc1ccc(NS(=O)(=O)c2ccc3c(c2)NC(=O)CO3)cc1Cl	–	inconclusive [inhibitor, full curve, poor fit]
CCOc1ccc(-c2cc(C)n3nc(C(=O)Nc4ccc(C)c(C)c4)cc3n2)cc1	–	inconclusive [inhibitor, single point]
O=C(CS(=O)(=O)c1ccccc1)Nc1nnc(Cc2ccccc2)s1	–	inconclusive [inhibitor, full curve, poor fit]
CC1Cc2ccccc2N1C(=O)COC(=O)c1n[nH]c(=O)c2ccccc12 (centres undefined)	inactive: -0.275%	–
O=C(CCN1C(=O)/C(=C/c2ccccc2Cl)SC1=S)NC1=NCCS1	–	inconclusive [inhibitor, single point]
Cc1ccc(C(=O)C[n+]2cc(Br)cc(Br)c2)cc1[N+](=O)[O-]	inactive: -8.2%	–
O=C(NC1CC2CCC(C1)N2C(=O)NCc1ccccc1)C1CC1 (centres undefined)	–	inconclusive [inhibitor, full curve]
CC(=O)c1cc(C#N)c(Oc2ccc(F)cc2)nc1C	inactive: -3.7%	–
Cc1ccc(S(=O)(=O)N2CCCC2C(=O)NC2=NCCS2)cc1 (centres undefined)	–	inconclusive [inhibitor, full curve, poor fit]
CN(C(=O)CN1C(=O)S/C(=C\c2ccccc2Cl)C1=O)C1CCS(=O)(=O)C1 (centres undefined)	–	inconclusive [inhibitor, full curve, poor fit]
CC(OC(=O)CCSc1ccccc1)C(=O)Nc1ccc(S(N)(=O)=O)cc1 (centres undefined)	–	inconclusive [inhibitor, full curve, poor fit]
N/C(Cn1nnc(-c2ccccc2)n1)=N\O	–	inconclusive [inhibitor, full curve, poor fit]
CCN(CC)S(=O)(=O)c1ccc2oc(C(=O)N3CCOCC3)c(C)c2c1	inactive: -6.7%	–
Cc1cccc(-c2nnc(SCCOc3ccc4c(C)cc(=O)oc4c3)o2)c1	–	inconclusive [inhibitor, single point]
Cn1cccc1CNC(=S)Nc1ccccc1F	inactive: -4.69%	–
CCCCn1c(N)c(N(C)C(=O)c2cc3c(s2)CCCCC3)c(=O)[nH]c1=O	–	inconclusive [inhibitor, partial curve, poor fit]
CC(Sc1nncn1C)C(=O)Nc1nnc(-c2ccccc2)s1 (centres undefined)	–	inconclusive [inhibitor, partial curve, poor fit]
CCOC(=O)NC(=O)C(=CNc1ccccc1OC)C(=O)NC(=O)OCC	–	inconclusive [inhibitor, partial curve]
CCc1ccc(C2C(C#N)=C(N)OC3=C2C(=O)CCC3)s1 (centres undefined)	inactive: 3.68%	–
c1ccc(CSc2ccc(-c3cccnc3)nn2)nc1	inactive: 1.34%	–
O=C(c1cc(C2CC2)on1)N1CCN(c2ccc(F)cc2)CC1	–	inconclusive [inhibitor, full curve, poor fit]
CC(Sc1nnc2ccccn12)C(=O)N1CCc2ccccc2C1 (centres undefined)	inactive: -0.958%	–

Source: PubChem BioAssay AID485294 (National Center for Advancing Translational Sciences (NCATS), 2010)
